{"source": "PubChem BioAssay (Tox21)", "note": "“And” between values parts separate entries of the source, which are not always exact repeats. Identical values can stand only once. The shares of active, inactive and inconclusive entries below differ from those in the screen. Potencies of inconclusive entries are doubtful fits and often do not repeat. Where a structure was tested more than once in an assay, its records may differ in their call. The source made the active and inactive calls. Calls follow the shape of the dose curve; as a rule, active = well fitted activation curve with a large enough effect in the repeat runs; inconclusive = weak or mixed curves; inactive = flat fitted curve, though single readings scatter."}
{"test": "A CellTox Green Cytotoxicity Assay to monitor cytotoxicity in HepG2 cells - 24 hour (AID 1224878); also: nearly all actives have a fitted effect of over 45% in size; also: potency is read from the fitted curve at half-maximal effect; tags tell the direction and shape of the fitted curve; as to Cytotoxicity: % is scaled to controls: 0 for no effect and ±100 for the full control effect", "conditions": "CellTox Green fluorescence; series mostly up to 76.8 µM; cytotoxicity: at the top concentration", "text": "National Center for Advancing Translational Sciences [NCATS]\nNIH Chemical Genomics Center [NCGC]\nU.S. Environmental Protection Agency [EPA]\nNational Institutes of Environmental Health Sciences [NIEHS]\nNational Toxicology Program [NTP]\nCell-based models are critical for drug discovery. Determining the natural cytotoxic effects resulting from test compounds is an essential research activity. A CellTox Green Cytotoxicity Assay to monitor cytotoxicity in real time of continues cell culture during 40 hours of the compound treatment was used to screen Tox21 10K library compounds in HepG2 cells. CellTox Green Cytotoxicity Assay is a nonlytic, homogeneous, biofluorescent method to measure cytotoxicity in cell culture after experimental manipulation. The assay system uses a proprietary asymmetric cyanine dye that is excluded from viable cells but preferentially stains the dead cell's DNA. […] Viable cells produce no appreciable increases in fluorescence. Therefore, the fluorescence signal produced by the binding interaction with dead cell DNA is proportional to cytotoxicity.\nThe mixture of HepG2 cell suspension and reagents were dispensed at 600cells/6 ul/well in 1536-well tissue culture treated black solid bottom plates using a Multidrop dispenser. After the assay plates were incubated at a 37 C/5% CO2 incubator for 5 hours, 23 nL of compounds dissolved in DMSO, positive and negative controls was transferred to the assay plate by a pintool work station. The plates were incubated at 37 C for 40 hours. The fluorescence intensity were measured at 0h, 8h, 16h, 24h, 32h and 40h time points using ViewLux plate reader during compound treatment."}
{"compound": "CNP(=O)(OC)Oc1ccc(C(C)(C)C)cc1Cl", "note": "(stereo not given)", "Potency": "inconclusive: 54.9 µM [activator, single point]"}
{"compound": "CCC(=O)O[C@H]1CC[C@H]2[C@@H]3CCC4=CC(=O)CC[C@]4(C)[C@H]3CC[C@]12C", "Potency": "inconclusive: 26.8 µM [activator, single point]"}
{"compound": "Cc1cccc(Cc2cnc[nH]2)c1C", "Potency": "inconclusive: 26.8 µM [activator, single point]"}
{"compound": "CC(C)CC(C)(c1ccc(O)cc1)c1ccc(O)cc1", "Potency": "inconclusive: 43.6 µM [activator, partial curve, poor fit]"}
{"compound": "N#Cc1c(Cl)c(Cl)c(Cl)c(C#N)c1Cl", "Potency": "active: 24.1 µM and active: 3.09 µM"}
{"compound": "CC1CCC(C(C)C)C(OC(=O)c2ccccc2N)C1", "note": "(stereo not given)", "Potency": "inconclusive: 54.2 µM [activator, single point]"}
{"compound": "CCCCOC(=O)c1ccccc1C(=O)OCc1ccccc1", "Potency": "inactive"}
{"compound": "O=C1C2(Cl)C3(Cl)C4(Cl)C(Cl)(Cl)C5(Cl)C3(Cl)C1(Cl)C5(Cl)C24Cl", "note": "(stereo not given)", "Potency": "active: 48.2 µM and active: 41.8 µM"}
{"compound": "O=C(Nc1ccc(Br)cc1)c1cc(Br)cc(Br)c1O", "Potency": "inconclusive: 21.8 µM [activator, full curve, poor fit] and inconclusive: 21.3 µM [activator, partial curve, poor fit]"}
{"compound": "NNC(=O)c1ccccc1", "cytotoxicity": "inactive: -3.47%"}
{"compound": "COc1cccc(C(=O)CCN[C@@H](C)[C@H](O)c2ccccc2)c1", "Potency": "inconclusive: 26.8 µM [activator, single point]"}
{"compound": "CCOP(=S)(OCC)SCn1nnc2ccccc2c1=O", "cytotoxicity": "inactive: -13.2%"}
{"compound": "CCCCCCCCCc1ccc(O)cc1", "Potency": "active: 44.1 µM and active: 38.9 µM"}
{"compound": "CN1C[C@H](C(=O)N[C@]2(C)O[C@@]3(O)[C@@H]4CCCN4C(=O)[C@H](Cc4ccccc4)N3C2=O)C=C2c3cccc4[nH]cc(c34)C[C@H]21", "Potency": "inconclusive: 6.44 µM [activator, partial curve, poor fit]"}
{"compound": "C=CCC1=C(C)[C@@H](OC(=O)[C@@H]2[C@@H](C=C(C)C)C2(C)C)CC1=O", "Potency": "active: 49 µM"}
{"compound": "C=C(C)[C@H]1Cc2c(ccc3c2O[C@@H]2COc4cc(OC)c(OC)cc4[C@@H]2C3=O)O1", "Potency": "active: 49.6 µM and active: 38.9 µM and inconclusive: 26.8 µM [activator, single point]"}
{"compound": "CCOP(=S)(OCC)SCSCC", "cytotoxicity": "inactive: 1.44%"}
{"compound": "CCCCCCCCCCCCOS(=O)(=O)O", "Potency": "inconclusive: 54.2 µM [activator, single point] and inconclusive: 54.9 µM [activator, single point]"}
{"compound": "ClC1=C(Cl)C2(Cl)C3C(Cl)C=CC3C1(Cl)C2(Cl)Cl", "note": "(stereo not given)", "Potency": "inconclusive: 55.2 µM [activator, single point] and inconclusive: 54.9 µM [activator, single point]"}
{"compound": "CC(C)c1cccc(C(C)C)c1O", "Potency": "inconclusive: 54.8 µM [activator, single point] and active: 43.6 µM"}
{"compound": "O=C(N[C@@H]1N=C(c2ccccc2F)c2cccc3c2N(CC3)C1=O)c1cc2ccccc2[nH]1", "Potency": "active: 21.3 µM"}
{"compound": "O=[N+]([O-])c1cc(C(F)(F)F)c(Cl)c([N+](=O)[O-])c1Cl", "Potency": "active: 24.5 µM"}
{"compound": "ClC1C(Cl)C(Cl)C(Cl)C(Cl)C1Cl", "note": "(stereo not given)", "Potency": "inconclusive: 54.9 µM [activator, single point] [middle of 5 runs]"}
{"compound": "CC(=O)c1cc(C(C)(C)C)cc2c1CCC2(C)C", "Potency": "inconclusive: 54.9 µM [activator, single point]"}
{"compound": "[O]=[Cr](=[O])([OH])[O][Cr](=[O])(=[O])[OH]", "Potency": "inconclusive: 49.4 µM [activator, partial curve, poor fit]"}
{"compound": "c1ccc(NNc2ccccc2)cc1", "Potency": "inconclusive: 49.4 µM [activator, single point]"}
{"compound": "Nc1ccccc1C(=O)OCCc1ccccc1", "Potency": "inconclusive: 49.2 µM [activator, single point] and active: 21.9 µM"}
{"compound": "ClC1=C(Cl)[C@]2(Cl)[C@@H]3[C@@H](Cl)[C@H]4O[C@H]4[C@@H]3C1(Cl)C2(Cl)Cl", "Potency": "inconclusive: 54.9 µM [activator, single point]"}
{"compound": "Cc1nnc2n1-c1sc(CCc3ccc(CC(C)C)cc3)cc1C(c1ccccc1Cl)=NC2C", "note": "(stereo not given)", "Potency": "inconclusive: 26.8 µM [activator, single point]"}
{"compound": "CCN(CC)C(=S)S", "Potency": "active: 7.72 µM and active: 21.9 µM"}
{"compound": "CC1(C)C(C(=O)OC(C#N)c2cccc(Oc3ccccc3)c2)C1(C)C", "note": "(stereo not given)", "Potency": "inactive"}
{"compound": "C=C(C)C(=O)[O][Sn]([CH2]CCC)([CH2]CCC)[CH2]CCC", "Potency": "active: 0.616 µM"}
{"compound": "C[C@]12Cc3cn[nH]c3C[C@@H]1CC[C@@H]1[C@@H]2CC[C@@]2(C)[C@H]1CC[C@]2(C)O", "Potency": "inconclusive: 26.8 µM [activator, single point]"}
{"compound": "CCCCCCCCn1sccc1=O", "Potency": "active: 49.1 µM and active: 25.7 µM"}
{"compound": "O=CC(Br)(Br)Br", "Potency": "active: 48.8 µM"}
{"compound": "CCCCCCCCCCCCCCC(Br)C(=O)O", "note": "(stereo not given)", "Potency": "inconclusive: 19.5 µM [activator, partial curve]"}
{"compound": "CCCCC(CC)COC(=O)Cl", "note": "(stereo not given)", "Potency": "inconclusive: 43.6 µM [activator, single point]"}
{"compound": "Clc1ccc(C(Cl)(Cl)Cl)c(Cl)c1", "Potency": "inconclusive: 49.3 µM [activator, single point]"}
{"compound": "CCC[CH2][Sn]([CH2]CCC)([CH2]CCC)[O]C(=O)c1ccccc1", "Potency": "active: 0.692 µM"}
{"compound": "CCCCCCCCCCCCCCCC[N+](C)(C)C", "Potency": "inconclusive: 13.8 µM [activator, partial curve, poor fit]"}
